This is one part of the list.
Experiments:
Assay in all cases: glycan array binding signal (z-score within array); higher = stronger binding
Conditions in all cases: glycan notation: IUPAC condensed, linker removed
[1] = biological target: Gal(b1-3)GlcNAc(b1-3)Gal(b1-4)GlcNAc(b1-2)Man(a1-3)[Gal(b1-3)GlcNAc(b1-3)Gal(b1-4)GlcNAc(b1-2)Man(a1-6)]Man(b1-4)GlcNAc(b1-4)GlcNAc
Procedure, shortened: (§1)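 Glycan array data came from 3228 arrays in the Consortium for Functional Glycomics database, and only arrays with an available protein sequence were kept. Glycan names were put into IUPAC-condensed notation, and columns mapping to the same glycan were averaged. The binding signal is a within-array Z-score, averaged across arrays of one protein sequence run at different concentrations or buffers and across linkers. A negative Z-score can be read as non-binding.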

[2] = biological target: Gal(b1-3)GlcNAc(b1-3)Gal(b1-4)GlcNAc(b1-2)[Gal(b1-3)GlcNAc(b1-3)Gal(b1-4)GlcNAc(b1-6)]Man(a1-6)[Gal(b1-3)GlcNAc(b1-3)Gal(b1-4)GlcNAc(b1-2)Man(a1-3)]Man(b1-4)GlcNAc(b1-4)[Fuc(a1-6)]GlcNAc
Procedure, shortened: as §1

[3] = biological target: Gal(b1-3)GlcNAc(b1-3)Gal(b1-4)GlcNAc(b1-3)Gal(b1-4)GlcNAc(b1-2)[Gal(b1-3)GlcNAc(b1-3)Gal(b1-4)GlcNAc(b1-3)Gal(b1-4)GlcNAc(b1-6)]Man(a1-6)[Gal(b1-3)GlcNAc(b1-3)Gal(b1-4)GlcNAc(b1-3)Gal(b1-4)GlcNAc(b1-2)Man(a1-3)]Man(b1-4)GlcNAc(b1-4)[Fuc(a1-6)]GlcNAc
Procedure, shortened: as §1

[4] = biological target: Gal(b1-3)GlcNAc(b1-3)Gal(b1-4)GlcNAc(b1-6)[Gal(b1-3)GlcNAc(b1-3)]Gal(b1-4)Glc
Procedure, shortened: as §1

[5] = biological target: Gal(b1-3)GlcNAc(b1-3)Gal(b1-4)[Fuc(a1-3)]GlcNAc
Procedure, shortened: as §1

[6] = biological target: Gal(b1-3)GlcNAc(b1-3)Gal(b1-4)[Fuc(a1-3)]GlcNAc(b1-6)[Gal(b1-3)GlcNAc(b1-3)]Gal(b1-4)Glc
Procedure, shortened: as §1

[7] = biological target: Gal(b1-3)GlcNAc(b1-3)GalNAc
Procedure, shortened: as §1

[8] = biological target: Gal(b1-3)GlcNAc(b1-6)Gal(b1-4)GlcNAc
Procedure, shortened: as §1

[9] = biological target: Gal(b1-3)GlcNAc(b1-6)GalNAc
Procedure, shortened: as §1

[10] = biological target: Gal(b1-3)GlcNAc(b1-6)[Gal(b1-3)]GalNAc
Procedure, shortened: as §1

Gal(b1-3)GlcNAc6S = biological target: Gal(b1-3)GlcNAc6S
Procedure, shortened: as §1

[11] = biological target: Gal(b1-3)[Fuc(a1-4)]GlcNAc
Procedure, shortened: as §1

[12] = biological target: Gal(b1-3)[Fuc(a1-4)]GlcNAc(b1-2)Man
Procedure, shortened: as §1

[13] = biological target: Gal(b1-3)[Fuc(a1-4)]GlcNAc(b1-2)Man(a1-3)[Gal(b1-3)[Fuc(a1-4)]GlcNAc(b1-2)Man(a1-6)]Man(b1-4)GlcNAc(b1-4)[Fuc(a1-6)]GlcNAc
Procedure, shortened: as §1

[14] = biological target: Gal(b1-3)[Fuc(a1-4)]GlcNAc(b1-3)Gal(b1-3)[Fuc(a1-4)]GlcNAc
Procedure, shortened: as §1

[15] = biological target: Gal(b1-3)[Fuc(a1-4)]GlcNAc(b1-3)Gal(b1-4)[Fuc(a1-3)]GlcNAc
Procedure, shortened: as §1

[16] = biological target: Gal(b1-3)[Fuc(a1-4)]GlcNAc(b1-6)GalNAc
Procedure, shortened: as §1

[17] = biological target: Gal(b1-3)[GlcNAc(b1-6)]GalNAc
Procedure, shortened: as §1

[18] = biological target: Gal(b1-3)[Neu5Ac(a2-6)]GalNAc
Procedure, shortened: as §1

[19] = biological target: Gal(b1-3)[Neu5Ac(a2-6)]GlcNAc(b1-4)Gal(b1-4)Glc
Procedure, shortened: as §1

[20] = biological target: Gal(b1-3)[Neu5Ac(b2-6)]GalNAc
Procedure, shortened: as §1

Gal(b1-4)Gal = biological target: Gal(b1-4)Gal
Procedure, shortened: as §1

[21] = biological target: Gal(b1-4)GalNAc(a1-3)[Fuc(a1-2)]Gal(b1-4)GlcNAc
Procedure, shortened: as §1

[22] = biological target: Gal(b1-4)GalNAc(b1-3)[Fuc(a1-2)]Gal(b1-4)GlcNAc
Procedure, shortened: as §1

Gal(b1-4)Glc = biological target: Gal(b1-4)Glc
Procedure, shortened: as §1

Gal(b1-4)Glc6S = biological target: Gal(b1-4)Glc6S
Procedure, shortened: as §1

Gal(b1-4)GlcNAc = biological target: Gal(b1-4)GlcNAc
Procedure, shortened: as §1

[23] = biological target: Gal(b1-4)GlcNAc(a1-6)Gal(b1-4)GlcNAc
Procedure, shortened: as §1

Gal(b1-4)GlcNAc(b1-2)Man = biological target: Gal(b1-4)GlcNAc(b1-2)Man
Procedure, shortened: as §1

[24] = biological target: Gal(b1-4)GlcNAc(b1-2)Man(a1-3)Man(b1-4)GlcNAc(b1-4)GlcNAc
Procedure, shortened: as §1

[25] = biological target: Gal(b1-4)GlcNAc(b1-2)Man(a1-3)[Gal(b1-4)GlcNAc(b1-2)Man(a1-6)]Man(b1-4)GlcNAc(b1-4)GlcNAc
Procedure, shortened: as §1

[26] = biological target: Gal(b1-4)GlcNAc(b1-2)Man(a1-3)[Gal(b1-4)GlcNAc(b1-2)Man(a1-6)]Man(b1-4)GlcNAc(b1-4)[Fuc(a1-6)]GlcNAc
Procedure, shortened: as §1

[27] = biological target: Gal(b1-4)GlcNAc(b1-2)Man(a1-3)[Gal(b1-4)GlcNAc(b1-2)Man(a1-6)][Gal(b1-4)GlcNAc(b1-4)]Man(b1-4)GlcNAc(b1-4)[Fuc(a1-6)]GlcNAc
Procedure, shortened: as §1

[28] = biological target: Gal(b1-4)GlcNAc(b1-2)Man(a1-3)[Gal(b1-4)GlcNAc(b1-2)Man(a1-6)][GlcNAc(b1-4)]Man(b1-4)GlcNAc(b1-4)[Fuc(a1-6)]GlcNAc
Procedure, shortened: as §1

[29] = biological target: Gal(b1-4)GlcNAc(b1-2)Man(a1-3)[GlcNAc(b1-2)Man(a1-6)]Man(b1-4)GlcNAc(b1-4)GlcNAc
Procedure, shortened: as §1

[30] = biological target: Gal(b1-4)GlcNAc(b1-2)Man(a1-3)[GlcNAc(b1-4)][Gal(b1-4)GlcNAc(b1-2)Man(a1-6)]Man(b1-4)GlcNAc(b1-4)GlcNAc
Procedure, shortened: as §1

[31] = biological target: Gal(b1-4)GlcNAc(b1-2)Man(a1-3)[Man(a1-6)]Man(b1-4)GlcNAc(b1-4)GlcNAc
Procedure, shortened: as §1

[32] = biological target: Gal(b1-4)GlcNAc(b1-2)Man(a1-6)Man(b1-4)GlcNAc(b1-4)GlcNAc
Procedure, shortened: as §1

B1: Epa23 (Candida glabrata) (protein)
chain: MGSSHHHHHHSSGLVPRGSHMIPNPFEGTINNFPSGCSPNHGLYNRGLTMELYNYSYIHPQSIQSYFNTSTLKKMEKGQCWDPSYLDVNYPRTGYKTHNRFAKVNGIDGILDFEFNPTRSCVPSKGQLPQNYNYPLQFTLSNFTMLLYGYFKPKVTAKHTFTIFADDLLFLNFGAGNAFDCCQQQDTIDDFGNYQAYALWGSDTQQNTLTVNLDANIYYPIRMFYNNRDFKGALNMYFTTDESNTKINDFSGYLFNIPDSSEGCPAHISYETECGNVSG
glycan array binding signal (z-score) [1]: -0.194
glycan array binding signal (z-score) [2]: -0.076
glycan array binding signal (z-score) [3]: -0.035
glycan array binding signal (z-score) [4]: -0.065
glycan array binding signal (z-score) [5]: -0.155
glycan array binding signal (z-score) [6]: -0.13
glycan array binding signal (z-score) [7]: -0.16
glycan array binding signal (z-score) [8]: 0.671
glycan array binding signal (z-score) [9]: -0.152
glycan array binding signal (z-score) [10]: -0.069
glycan array binding signal (z-score) (Gal(b1-3)GlcNAc6S): -0.074
glycan array binding signal (z-score) [11]: -0.273
glycan array binding signal (z-score) [12]: -0.153
glycan array binding signal (z-score) [13]: -0.198
glycan array binding signal (z-score) [14]: -0.248
glycan array binding signal (z-score) [15]: -0.208
glycan array binding signal (z-score) [16]: -0.177
glycan array binding signal (z-score) [17]: -0.04
glycan array binding signal (z-score) [18]: 0.224
glycan array binding signal (z-score) [19]: -0.171
glycan array binding signal (z-score) [20]: -0.124
glycan array binding signal (z-score) (Gal(b1-4)Gal): -0.087
glycan array binding signal (z-score) [21]: -0.292
glycan array binding signal (z-score) [22]: -0.248
glycan array binding signal (z-score) (Gal(b1-4)Glc): -0.134
glycan array binding signal (z-score) (Gal(b1-4)Glc6S): 0.808
glycan array binding signal (z-score) (Gal(b1-4)GlcNAc): 0.097
glycan array binding signal (z-score) [23]: 0.803
glycan array binding signal (z-score) (Gal(b1-4)GlcNAc(b1-2)Man): -0.254
glycan array binding signal (z-score) [24]: 0.377
glycan array binding signal (z-score) [25]: -0.075
glycan array binding signal (z-score) [26]: -0.062
glycan array binding signal (z-score) [27]: -0.297
glycan array binding signal (z-score) [28]: -0.232
glycan array binding signal (z-score) [29]: -0.125
glycan array binding signal (z-score) [30]: -0.279
glycan array binding signal (z-score) [31]: -0.016
glycan array binding signal (z-score) [32]: -0.17

Reference: the supplement of paper PMC8728848
